Laboratory results published in the supplement of paper PMC4166925.
± gives the standard deviation of the averaged measurements. The full ranking holds about 33,000 sequences; the median of “E-score (dimensionless, -0.5 to 0.5)” is about -0.046, and the highest 2% start at about 0.36. Some of the results follow.

What follows are sequences tested on T1, SpTbr T-box DNA-binding domain (GST fusion) (assay: PBM E-score of 8-mer (E-score (dimensionless, -0.5 to 0.5)); Tbr is Tbrain of the sea star Patiria miniata (Pm) or the sea urchin Strongylocentrotus purpuratus (Sp); higher = stronger binding preference; most listed sequences are background and not binding sites). Conditions: the construct has about 5 more residues each side.
T1 sequence: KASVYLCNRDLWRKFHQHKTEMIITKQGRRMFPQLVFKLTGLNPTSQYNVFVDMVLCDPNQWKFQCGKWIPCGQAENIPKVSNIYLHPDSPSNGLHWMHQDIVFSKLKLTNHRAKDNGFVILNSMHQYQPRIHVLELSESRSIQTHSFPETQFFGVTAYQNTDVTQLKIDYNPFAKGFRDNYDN
Procedure, shortened: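 GST-fused Tbr T-box DNA-binding domains (the whole T-box plus about five flanking residues) were expressed in BL21 E. coli at 20 °C and purified by glutathione affinity chromatography. Universal Agilent oligonucleotide arrays were made double-stranded by primer extension, incubated with 200 nM protein in PBS (pH 7.5), then scanned and quantified. Every ungapped 8-mer was scored from probe intensities. The Universal PBM Analysis Suite gave each word an enrichment E-score, averaged over duplicate arrays.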

Row | Sequence | PBM E-score of 8-mer
1 | ACTTAGGG | -0.0977 ± 0.044
2 | CGGTTTGC | 0.0866 ± 0.036
3 | AAAGATTG | -0.138 ± 0.1
4 | CTGAATCC | -0.281 ± 0.056
5 | GGGCGGCA | -0.0125 ± 0.018
6 | AGGAATCG | -0.166 ± 0.059
7 | CCGAGCGG | -0.317 ± 0.046
8 | AGCCTCAG | -0.26 ± 0.0055
9 | GTCATTTA | 0.00598 ± 0.011
10 | CATGGTGC | 0.145 ± 0.014
11 | CACCGCGC | 0.149 ± 0.075
12 | AAGTTTAG | -0.126 ± 0.041
13 | AGGGTTTG | -0.124 ± 0.1
14 | ATCACACG | 0.417 ± 0.027
15 | ATTCTGAA | -0.26 ± 0.051
16 | CGGTTTGA | -0.103 ± 0.098
17 | CAGGAGCA | -0.0537 ± 0.046
18 | GCGGCCGA | -0.0844 ± 0.089
19 | CATCGTCC | -0.187 ± 0.054
20 | AAGACTGC | -0.263 ± 0.072
21 | ACACAGCA | 0.139 ± 0.047
22 | AGCGACTG | -0.0432 ± 0.038
23 | TAAATAGA | -0.135 ± 0.059
24 | AACAGACA | 0.141 ± 0.048
25 | AGATGCAA | -0.169 ± 0.014

Row | Sequence | PBM E-score of 8-mer
26 | AACAGCAG | -0.0147 ± 0.058
27 | CAATTCCG | 0.0175 ± 0.024
28 | GACAGACC | -0.0415 ± 0.052
29 | ATCACGAC | 0.143 ± 0.0053
30 | CTGATCAG | -0.0725 ± 0.036
31 | AACAATAG | 0.135 ± 0.028
32 | GCACTTGA | 0.139 ± 0.048
33 | CGTATCAA | -0.181 ± 0.0039
34 | AGATTCTC | 0.0437 ± 0.07
35 | ATGCGCTC | -0.175 ± 0.02
36 | ACACCTTA | 0.46892 ± 0.00038
37 | TGATTCCA | -0.179 ± 0.0044
38 | ACATAAGA | -0.0442 ± 0.051
39 | ATTGTCGA | 0.0605 ± 0.042
40 | AATGCAGG | -0.198 ± 0.014
41 | CACATGTC | 0.22 ± 0.006
42 | AGTGCGCA | 0.116 ± 0.024
43 | CAGGAGCC | -0.179 ± 0.092
44 | ACTACGAT | -0.1 ± 0.065
45 | ATGCGCCG | -0.097 ± 0.046
46 | AGGTTGGC | 0.208 ± 0.0032
47 | GTGGCACA | 0.243 ± 0.021
48 | AGTGTACC | -0.101 ± 0.0028
49 | CCGATGAA | -0.0503 ± 0.074
50 | TAGCCCGA | -0.2 ± 0.047

Row | Sequence | PBM E-score of 8-mer
51 | GCCGGCGC | 0.0705 ± 0.11
52 | CTGGTTCC | -0.0214 ± 0.056
53 | CTTTTTTC | -0.0265 ± 0.039
54 | AGAGTCCT | -0.356 ± 0.0085
55 | GATCCTGC | -0.119 ± 0.056
56 | CCCGAAGC | -0.0491 ± 0.043
57 | TACTGCCA | -0.141 ± 0.0086
58 | CACTTATG | 0.252 ± 0.04
59 | GACCCAGA | 0.00365 ± 0.028
60 | ATTAAAAC | -0.0783 ± 0.021
61 | GCGCCAAC | 0.29128 ± 2.8e-05
62 | CGCGGGAG | 0.118 ± 0.032
63 | TCTTCTCA | 0.24 ± 0.054
64 | ACCAGAGT | 0.0612 ± 0.0065
65 | ACGTGTAT | -0.0813 ± 0.062
66 | AACACTAG | 0.222 ± 0.049
67 | ATACGGCA | -0.155 ± 0.032
68 | CCGCGCTA | 0.0742 ± 0.032
69 | ATCCTCTG | -0.0353 ± 0.06
70 | AATTGCAT | -0.192 ± 0.026
71 | CTAGATAA | -0.00975 ± 0.025
72 | CGAAGTAA | -0.0537 ± 0.025
73 | GCGATACA | 0.0906 ± 0.064
74 | ATGGCCCC | 0.00571 ± 0.033
75 | ACATCTGA | 0.161 ± 0.014

Row | Sequence | PBM E-score of 8-mer
76 | ATATCAAT | 0.0685 ± 0.019
77 | CAGAATTA | -0.127 ± 0.015
78 | CAGTGGCA | 0.143 ± 0.018
79 | AGGGATGA | -0.19 ± 0.015
80 | ACAAATGT | 0.0937 ± 0.0053
81 | CAGCAAGG | 0.0184 ± 0.0096
82 | GAGGAAGA | -0.0625 ± 0.058
83 | GTTCCATA | -0.232 ± 0.039
84 | ATACTAGA | -0.222 ± 0.11
85 | TTCCAAAA | -0.248 ± 0.0056
86 | CGCGGGTA | 0.188 ± 0.025
87 | AACGACTG | 0.155 ± 0.022
88 | AGCTGCAT | -0.228 ± 0.0081
89 | CACCTACG | 0.373 ± 0.0055
90 | AAATTTCC | -0.135 ± 0.047
91 | AGTAGGAT | -0.131 ± 0.024
92 | ATGAGTTA | -0.0921 ± 0.15
93 | CGAAAGCA | -0.0577 ± 0.061
94 | GACTTCTC | 0.163 ± 0.07
95 | CATTGTCA | 0.241 ± 0.051
96 | ATAGGGTC | -0.364 ± 0.013
97 | AGGTAGAC | -0.172 ± 0.046
98 | CCAACCCC | -0.0509 ± 0.025
99 | ACCATTAC | 0.034 ± 0.032
100 | CAACGTGG | 0.0121 ± 0.0092

Row | Sequence | PBM E-score of 8-mer
101 | TGCACCCA | -0.00634 ± 0.056
102 | ATTCACTA | 0.0946 ± 0.053
103 | GAGCGGAC | -0.31 ± 0.035
104 | TATATCGA | 0.0169 ± 0.0051
105 | CTCGCGTA | 0.152 ± 0.079
106 | GATGTGGC | 0.117 ± 0.068
107 | GTGTACCA | 0.0514 ± 0.027
108 | CCAGGACC | -0.192 ± 0.12
109 | CGTAAGAC | -0.272 ± 0.02
110 | GCGTCCCA | -0.0882 ± 0.007
111 | AAAGCCCT | -0.241 ± 0.028
112 | TAGTATAA | 0.0568 ± 0.034
113 | ATCTGGGG | -0.0234 ± 0.03
114 | TGAAACAA | 0.0829 ± 0.046
115 | TACGCAGA | -0.00736 ± 0.075
116 | AACCTCCG | 0.0095 ± 0.07
117 | CGAGGCCC | -0.215 ± 0.083
118 | GGACAACC | -0.108 ± 0.014
119 | ATCCATGC | -0.0894 ± 0.017
120 | CCAACGTA | -0.159 ± 0.018
121 | CCCTGAGA | -0.19 ± 0.036
122 | ACTGTGCC | -0.00825 ± 0.032
123 | AAGATCCG | -0.156 ± 0.012
124 | GGTTTAGA | -0.183 ± 0.04
125 | CTAACGAC | 0.11 ± 0.04

Row | Sequence | PBM E-score of 8-mer
126 | CGCTAAGC | 0.106 ± 0.008
127 | AGGACTGA | 0.0358 ± 0.0096
128 | AGTCATTA | 0.0628 ± 0.02
129 | ACAGAGAC | -0.0676 ± 0.02
130 | ACACTCGC | 0.329 ± 0.0045
131 | CGGTGGTA | -0.00129 ± 0.12
132 | GTAGGTCA | -0.0957 ± 0.058
133 | GAGTTGGA | -0.0967 ± 0.023
134 | GACATCCA | 8e-05 ± 0.027
135 | GCCAATCA | -0.107 ± 0.03
136 | GAGGCAGC | -0.122 ± 0.061
137 | ACCTGCAC | 0.135 ± 0.035
138 | CATATCGC | 0.145 ± 0.013
139 | GGGGGAAC | -0.0949 ± 0.015
140 | GAAATTGC | -0.1 ± 0.053
141 | GGTTACAC | 0.241 ± 0.026
142 | AAACCACG | 0.0305 ± 0.046
143 | CCCGAGAC | -0.125 ± 0.03
144 | ATTTGACG | 0.156 ± 0.012
145 | CCTCCCTC | -0.165 ± 0.013
146 | GCAACTCC | 0.234 ± 0.093
147 | ATCAGATG | -0.000695 ± 0.0056
148 | GAACCCAA | -0.0429 ± 0.035
149 | GGATCTCA | -0.049 ± 0.0039
150 | CGTGATAC | 0.101 ± 0.03

Row | Sequence | PBM E-score of 8-mer
151 | AATGCGGC | 0.0415 ± 0.0011
152 | GTATGGGA | -0.202 ± 0.045
153 | ATTGTGCC | -0.00556 ± 0.011
154 | CAAAGTCG | -0.141 ± 0.029
155 | AGTGGTAG | -0.0036 ± 0.015
156 | GCGCGAAC | 0.439 ± 0.018
157 | ATGGTAGG | 0.0199 ± 0.035
158 | CAGTACGA | -0.183 ± 0.0036
159 | CTAGATTA | -0.0995 ± 0.076
160 | ACCGAAAC | -0.177 ± 0.013
161 | TCCAACGA | -0.0598 ± 0.029
162 | CTTAGGGC | -0.131 ± 0.082
163 | AACGGGAT | -0.0959 ± 0.041
164 | CTATAAAC | 0.0111 ± 0.085
165 | CTACGCCC | 0.0782 ± 0.051
166 | TAGTTCGA | 0.0266 ± 0.032
167 | CCACCAGG | -0.177 ± 0.03
168 | AGTAGGGC | -0.176 ± 0.079
169 | ACCCTTTG | -0.0807 ± 0.0087
170 | CGTTTTAC | -0.0232 ± 0.013
171 | GTGAGTAA | 0.322 ± 0.01
172 | ATTAAATC | -0.101 ± 0.069
